Results: the supplement of paper PMC10369915
The other results are listed elsewhere or left out. No stated cut-off is given here; in the data, active = 3.2 or more and inactive = the rest. Only a few entries rise above the background.

Legend:
Experiment in all cases: enrichment score (SH2-bound / input frequency) (ratio); bacterial display of known human phosphotyrosine sites (pTyr-Var adds point mutants) read by sequencing; higher = stronger binding; tyrosines were phosphorylated by kinases first
Settings in all cases: peptide library: pTyr-Var
SHP2 C-SH2 domain E139D = target: SHP2 C-SH2 domain E139D
[1] = target: SHP2 C-SH2 domain wild-type
SHP2 N-SH2 domain L43F = target: SHP2 N-SH2 domain L43F
SHP2 N-SH2 domain T42A = target: SHP2 N-SH2 domain T42A
SHP2 N-SH2 domain T52S = target: SHP2 N-SH2 domain T52S
[2] = target: SHP2 N-SH2 domain wild-type

Measured: enrichment score
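Further: displayed peptides selected on beads carrying the immobilized SH2 domain, with library peptides lacking any tyrosine serving as negative controls.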

ITVCDYTNPCT [MYD88_Y276]
inactive: SHP2 C-SH2 domain E139D 2.09 | [1] 2.03 | SHP2 N-SH2 domain L43F 2.47 | SHP2 N-SH2 domain T42A 1.7 | SHP2 N-SH2 domain T52S 2.64 | [2] 1.79

RVAFQYGVTDL [MYBPC3_Y340_I336V]
inactive: SHP2 C-SH2 domain E139D 1.04 | [1] 0.838 | SHP2 N-SH2 domain L43F 0.73 | SHP2 N-SH2 domain T42A 0.735 | SHP2 N-SH2 domain T52S 0.913 | [2] 0.969

EWKQKYEESQS [MYH6_Y1462]
inactive: SHP2 C-SH2 domain E139D 0.827 | [1] 0.826 | SHP2 N-SH2 domain L43F 0.75 | SHP2 N-SH2 domain T42A 0.852 | SHP2 N-SH2 domain T52S 0.947 | [2] 0.983

VHSGTYQVTVR [MYBPC3_Y1043]
inactive: SHP2 C-SH2 domain E139D 0.844 | [1] 0.662 | SHP2 N-SH2 domain L43F 0.833 | SHP2 N-SH2 domain T42A 0.7 | SHP2 N-SH2 domain T52S 0.845 | [2] 0.705

ACRSLYGGFVE [MVD_Y164]
inactive: SHP2 C-SH2 domain E139D 0.88 | [1] 0.707 | SHP2 N-SH2 domain L43F 0.566 | SHP2 N-SH2 domain T42A 0.63 | SHP2 N-SH2 domain T52S 0.711 | [2] 0.68

ITVCDYTNPCP [MYD88_Y276_T281P]
inactive: SHP2 C-SH2 domain E139D 1.17 | [1] 0.945 | SHP2 N-SH2 domain L43F 1.27 | SHP2 N-SH2 domain T42A 0.754 | SHP2 N-SH2 domain T52S 1.22 | [2] 1.02

RSRSSYTHGLN [MYCT1_Y116]
inactive: SHP2 C-SH2 domain E139D 0.304 | [1] 0.216 | SHP2 N-SH2 domain L43F 0.383 | SHP2 N-SH2 domain T42A 0.246 | SHP2 N-SH2 domain T52S 0.311 | [2] 0.313

ADKAAYLQSMN [MYH2_Y389_L393M]
inactive: SHP2 C-SH2 domain E139D 0.632 | [1] 0.736 | SHP2 N-SH2 domain L43F 0.618 | SHP2 N-SH2 domain T42A 0.526 | SHP2 N-SH2 domain T52S 0.601 | [2] 0.693

RIAFQYGDTDL [MYBPC3_Y340_V342D]
inactive: SHP2 C-SH2 domain E139D 1 | [1] 0.768 | SHP2 N-SH2 domain L43F 1.04 | SHP2 N-SH2 domain T42A 0.823 | SHP2 N-SH2 domain T52S 1.02 | [2] 0.959

TVLEHYRRTHC [MYBPC3_Y1119]
inactive: SHP2 C-SH2 domain E139D 0.785 | [1] 0.705 | SHP2 N-SH2 domain L43F 0.773 | SHP2 N-SH2 domain T42A 0.676 | SHP2 N-SH2 domain T52S 0.746 | [2] 0.668

ADKAAYLQNLN [MYH1_Y389]
inactive: SHP2 C-SH2 domain E139D 0.46 | [1] 0.636 | SHP2 N-SH2 domain L43F 0.485 | SHP2 N-SH2 domain T42A 0.618 | SHP2 N-SH2 domain T52S 0.849 | [2] 0.534

ACLSLYGGFVE [MVD_Y164_R161L]
inactive: SHP2 C-SH2 domain E139D 0.841 | [1] 1.05 | SHP2 N-SH2 domain L43F 0.752 | SHP2 N-SH2 domain T42A 0.771 | SHP2 N-SH2 domain T52S 0.554 | [2] 1.16

EPAVLYNLKER [MYH7_Y103_D107E]
inactive: SHP2 C-SH2 domain E139D 1.73 | [1] 1.49 | SHP2 N-SH2 domain L43F 1.56 | SHP2 N-SH2 domain T42A 0.942 | SHP2 N-SH2 domain T52S 1.72 | [2] 1.58

SYDLDYDSVQP [MYC_Y16_N11S]
inactive: SHP2 C-SH2 domain E139D 0.567 | [1] 0.598 | SHP2 N-SH2 domain L43F 0.602 | SHP2 N-SH2 domain T42A 0.605 | SHP2 N-SH2 domain T52S 0.595 | [2] 0.78

KFFRVYQGQQP [MUTYH_Y494_V490F]
inactive: SHP2 C-SH2 domain E139D 0.659 | [1] 0.462 | SHP2 N-SH2 domain L43F 0.41 | SHP2 N-SH2 domain T42A 0.584 | SHP2 N-SH2 domain T52S 0.59 | [2] 0.363

FPPISYLNAIS [MVD_Y276]
inactive: SHP2 C-SH2 domain E139D 1.19 | [1] 0.87 | SHP2 N-SH2 domain L43F 1.29 | SHP2 N-SH2 domain T42A 1.6 | SHP2 N-SH2 domain T52S 1.19 | [2] 1.12

NYDLDYDSVQP [MYC_Y16]
inactive: SHP2 C-SH2 domain E139D 0.843 | [1] 0.748 | SHP2 N-SH2 domain L43F 0.682 | SHP2 N-SH2 domain T42A 0.56 | SHP2 N-SH2 domain T52S 0.605 | [2] 0.75

TGNGYYFRVFS [MYBPC3_Y1136_I1131T]
inactive: SHP2 C-SH2 domain E139D 0.838 | [1] 1.05 | SHP2 N-SH2 domain L43F 0.587 | SHP2 N-SH2 domain T42A 0.883 | SHP2 N-SH2 domain T52S 0.681 | [2] 0.931

IGNGFYFRVFS [MYBPC3_Y1136_YF]
inactive: SHP2 C-SH2 domain E139D 0.76 | [1] 0.859 | SHP2 N-SH2 domain L43F 0.659 | SHP2 N-SH2 domain T42A 0.596 | SHP2 N-SH2 domain T52S 0.644 | [2] 0.907
